# The supplement of paper PMC3334620
# Whole data set: some 33,000 sequences, median “E-score (-0.5 to 0.5)” near -0.011, cut for the highest 2% near 0.28. This is one part of the list.
# Molecular target: T1, Gcr1 (UniProt P07261)
# T1 sequence: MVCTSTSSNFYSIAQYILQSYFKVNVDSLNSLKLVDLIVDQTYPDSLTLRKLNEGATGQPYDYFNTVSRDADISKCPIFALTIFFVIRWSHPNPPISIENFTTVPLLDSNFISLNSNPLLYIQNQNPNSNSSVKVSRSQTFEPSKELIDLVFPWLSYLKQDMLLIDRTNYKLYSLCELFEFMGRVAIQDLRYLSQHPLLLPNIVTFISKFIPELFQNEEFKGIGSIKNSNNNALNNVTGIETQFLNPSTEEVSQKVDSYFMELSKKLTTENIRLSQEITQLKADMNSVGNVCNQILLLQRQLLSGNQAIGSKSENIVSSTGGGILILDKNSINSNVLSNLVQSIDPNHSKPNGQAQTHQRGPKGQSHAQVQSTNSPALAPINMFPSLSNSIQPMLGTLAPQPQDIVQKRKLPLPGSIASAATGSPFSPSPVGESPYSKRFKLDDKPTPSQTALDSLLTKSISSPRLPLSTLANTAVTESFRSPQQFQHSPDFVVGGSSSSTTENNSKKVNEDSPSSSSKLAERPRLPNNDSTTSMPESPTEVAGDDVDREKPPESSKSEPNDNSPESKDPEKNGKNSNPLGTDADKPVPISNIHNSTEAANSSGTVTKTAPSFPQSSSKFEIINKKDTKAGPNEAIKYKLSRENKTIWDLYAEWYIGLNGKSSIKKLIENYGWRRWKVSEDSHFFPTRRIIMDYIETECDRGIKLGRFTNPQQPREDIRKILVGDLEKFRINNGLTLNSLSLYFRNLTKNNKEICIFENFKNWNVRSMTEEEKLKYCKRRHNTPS
# Assay: PBM E-score (8-mer binding enrichment) (E-score (-0.5 to 0.5)); higher = stronger / more preferred TF binding; most listed sequences are background and not binding sites
# Settings: protein concentration: 100 nM; construct: GST-full length
# Summary of the method: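 Universal all-10-mer Agilent arrays, fresh or stripped once, were converted to double-stranded form by primer extension. GST-tagged yeast transcription factors from PURExpress in vitro transcription/translation, full-length or DNA-binding domain only, were applied at about 100-200 nM and detected with fluorescent anti-GST. After masliner normalisation, the Universal PBM Analysis Suite scored each ungapped eight-base word together with its reverse complement by E-score.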
row,Sequence,PBM E-score
1,AGGCCTCA,-0.317
2,CAAGAAGC,0.24
3,AGTAAACA,-0.0203
4,CGTTTCGC,-0.137
5,GCAACTAA,0.0559
6,CGAACGCG,-0.0986
7,TCCCTCGA,-0.131
8,CAGGACTG,0.0079
9,GGAGGGAC,-0.122
10,CTTACTAC,0.00849
11,ATCGCCCC,-0.13
12,CAACGGAG,0.11
13,CTTACAGC,-0.247
14,CCACTCAG,0.138
15,CACCCGGA,0.136
16,CCCCGGAC,-0.1
17,GTACTAAA,0.118
18,CCTCCTAC,-0.163
19,CCGACGTA,-0.0898
20,GTCTCCAA,0.21
21,CGATAGAC,-0.201
22,ATTTTTGG,0.186
23,CACACCCA,0.0013
24,ACACTAAC,-0.0511
25,ACTAGTGC,-0.0321

row,Sequence,PBM E-score
1,AGCAATCA,-0.0811
2,AGCCCGCC,-0.0705
3,GAACGCTC,-0.17
4,ATCAGAAT,0.196
5,CTCTGTAC,-0.113
6,CTACGTTC,-0.066
7,ACGCACCC,0.218
8,CTTCATGA,0.0466
9,ATATGACC,-0.207
10,CAGCATGG,-0.18
11,ATAGGAAT,0.27
12,CAGCGAGC,-0.131
13,AGGAGAGG,-0.194
14,AGGCAGGG,-0.244
15,GAAATACC,0.119
16,GAAGCCCC,0.381
17,GCGTTTAC,0.0722
18,CGCCGTAA,-0.00766
19,CTTTGCTA,-0.168
20,GGAGAAGA,-0.0157
21,TCCCCTCA,0.107
22,AAGTCCCT,-0.154
23,ACACATGG,-0.194
24,CCCCCTCC,-0.234
25,CTAAGGAA,0.104

row,Sequence,PBM E-score
1,GTGAGGCA,-0.0718
2,CAGAAGAC,0.0276
3,CGCGTGCC,-0.182
4,AGGTCCAG,0.0218
5,ACCATATG,-0.0133
6,TAGCCCCA,0.139
7,CTGCTCGA,-0.0563
8,AAACTCGA,-0.0314
9,GAGAACGC,-0.124
10,CCTGAGTC,0.0838
11,ATGTGCCC,-0.17
12,AAACCATT,-0.0208
13,GTAATGAA,-0.0605
14,AGGAGCAG,0.0777
15,CATTACTC,-0.127
16,ACCATGTA,0.0379
17,ATCACCGG,0.0589
18,ATTCCGTA,0.173
19,ATTTGGTG,0.166
20,CCGCATAG,0.135
21,GCTTAAAC,0.0672
22,CTCGCCAA,0.0701
23,CGGTCGGA,-0.263
24,ACAATATC,-0.111
25,CTATGGTA,-0.0725

row,Sequence,PBM E-score
1,AACCACGC,0.0235
2,ACAGTTAC,0.0846
3,ATGCTGTC,-0.182
4,ATGCGTGA,-0.0544
5,AACCAAGC,-0.0438
6,CCGCCGGA,0.0444
7,GCTCACGA,-0.131
8,GATTGTCC,-0.11
9,CGTAGACC,-0.256
10,TAAAGGAA,0.314
11,GACCATAA,0.0388
12,CGCGTACA,-0.0115
13,AGTGCGTC,-0.11
14,CGCCCACA,0.263
15,ACAGGTGG,0.104
16,ATAAGCCA,0.101
17,ATAGGGCG,0.0875
18,AGCGTTCG,-0.204
19,AGTATAGC,0.0932
20,GATAATCC,-0.153
21,AGAGCTGC,0.0162
22,CGTAAGAA,-0.113
23,CTATTGAC,-0.0709
24,ATGCTACA,0.123
25,CCTGCACG,-0.0652

row,Sequence,PBM E-score
1,AAGGTAGC,-0.0251
2,GACAGACC,-0.157
3,CAATTCCG,0.0519
4,AACAGACA,0.0187
5,AACAGCAG,0.184
6,AGATGCAA,-0.0275
7,CACATGTC,-0.113
8,ATTGTCGA,-0.0307
9,ACATAAGA,0.171
10,AATGCAGG,-0.0215
11,TGATTCCA,0.0933
12,ATGCGCTC,0.0347
13,ACACCTTA,0.0539
14,AGATTCTC,0.105
15,CTGATCAG,-0.307
16,AACAATAG,0.0566
17,CGTATCAA,0.0659
18,GCACTTGA,-0.0566
19,ATCACGAC,-0.306
20,CTGGTTCC,0.34
21,GCCGGCGC,0.0181
22,CTTTTTTC,0.238
23,CCGATGAA,0.0458
24,TAGCCCGA,0.131
25,AGTGTACC,-0.334

row,Sequence,PBM E-score
1,AGGTTGGC,-0.111
2,GTGGCACA,-0.0489
3,ATGCGCCG,-0.196
4,CAGGAGCC,0.242
5,AGTGCGCA,0.0737
6,ACTACGAT,-0.123
7,ACCAGAGT,0.0273
8,TCTTCTCA,-0.0323
9,CGCGGGAG,-0.187
10,ATTAAAAC,0.113
11,GCGCCAAC,0.22
12,CACTTATG,0.0506
13,GACCCAGA,-0.0613
14,CCCGAAGC,0.0299
15,TACTGCCA,-0.108
16,AGAGTCCT,0.0857
17,GATCCTGC,0.252
18,ATTACACA,0.0576
19,GAGTTCAA,-0.246
20,CCACATGC,-0.205
21,GGATGAGA,-0.033
22,CGTGGTGC,-0.0202
23,ATTGGTGA,0.121
24,ACCGCGAT,-0.16
25,AGGCGATC,-0.0743

row,Sequence,PBM E-score
1,AAGATCCC,0.125
2,CATGGTGC,0.0809
3,GTCATTTA,-0.172
4,AGCCTCAG,-0.0495
5,CCGAGCGG,-0.224
6,AGGAATCG,0.294
7,GGGCGGCA,-0.0294
8,CTGAATCC,0.115
9,ACTTAGGG,0.147
10,CGGTTTGC,-0.089
11,AAAGATTG,-0.0542
12,ATTCTGAA,0.136
13,CGGTTTGA,-0.249
14,ATCACACG,0.0211
15,CACCGCGC,-0.0861
16,AAGTTTAG,0.234
17,AGGGTTTG,-0.0293
18,TAAATAGA,0.085
19,AGCGACTG,-0.0906
20,ACACAGCA,0.202
21,AAGACTGC,-0.191
22,GCGGCCGA,0.0208
